Test results published in the supplement of paper PMC10338343.
± gives the standard deviation. Over roughly 6,600 sequences, “pre-steady-state target cleavage rate” has its median near 0.07; the highest 2% begin near 0.72. The entries are a selection whose mix differs from that of the whole data set.

System: MIWI (PIWIL1) piRISC loaded with Kctd7 piRNA (30 nt)
Experiment: pre-steady-state target cleavage rate (min^-1); MIWI and MILI are mouse PIWI proteins and EfPiwi is from a freshwater sponge; tags in brackets are library labels; higher = faster piRNA-guided slicing of the target
Settings: guide: Kctd7 piRNA 5'p-UGUUAAUCUCUCAGAGAAGGUGACAGUGAU; auxiliary factor: 500 nM mouse GTSF1
Procedure, shortened: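 Cleave-'n-Seq: 1 nM active affinity-purified piRISC with one synthetic guide and 0.1 nM transcribed, DNA-blocked target RNA library were mixed, with or without 500 nM GTSF1 partner protein, in HEPES–potassium acetate buffer at 33 °C for 0–8 or 0–960 min. Uncleaved targets were sequenced and normalised to depth and to weakly complementary targets, three trials were pooled, and k3 was capped at 0.0001 min^-1. The pre-steady-state cleavage rate was fitted […].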

Sequence	pre-steady-state target cleavage rate
UAGUGACACACCUUCUCUGAGAGAAAAACA	0.0637 ± 0.015
UAGUGACAGACCUACUCUGUGAGAUUAACA	0.0059 ± 0.0034
UAGUGUGUCACCUUCUCUGAGAGAUAUAACA	0.297 ± 0.029
UAGUCUGUCACCUUCUCUGAGAGAUGAACA	0.174 ± 0.028
AUCACAGUCACCUUCACUGAGAGAUUAACA	0.518 ± 0.033
UAGUCUGUGACGUUCUCUGAGAGAUUAACA	0.5 ± 0.036
UUCACUGUCACCUUGUCUCAGAGAUUAACA	0.0331 ± 0.0048
UACACUGUCACCUUCUCUGAGAGUAAAUGA	0.0785 ± 0.035
UAGUCUGUCACCUUCUGAGAGAGAUUAACA	0.0517 ± 0.0069
AUCACAGUCACCUUGUCUGAGAGAUUAACA	0.444 ± 0.071
AUCACUGUCACCUUCUCUGAGAGAUGUAACA	0.385 ± 0.047
UUCACUGUCACCUUCUCUGAGACAUUAUGA	0.00809 ± 0.004
UAGUGACACAGCAUCUCUGAGAGAUUAACA	0.012 ± 0.0033
UACACUGUCACCUUCUCUGAGAGAAUAACA	0.323 ± 0.056
UAGUGUGUCACCUUCUCUCGAGAGAUUAACA	0.338 ± 0.097
AUCACUGUCACACUUCUCUGAGAGAUUAACA	0.619 ± 0.035
UAGACAGUCACGUUCUCUGAGAGAUUAACA	0.651 ± 0.032
UUCACAGUCUCCUUCUCUGAGAGAUUAACA	0.503 ± 0.031
UAGUCUGUCACCUUCACUGAGAGAUUAAGA	0.0904 ± 0.024
UUCACUUGUCACCUUCUCUGAGAGAUUAACA	0.63 ± 0.09
UACACUGUCACCUUCUCUGCGAGAUUAACA	0.406 ± 0.04
UACACUGUCACGUUCUCUGAGAGAAUAACA	0.186 ± 0.033
UAGACAGUCACCUUCUCUCAGAGAUUAACA	0.0846 ± 0.0083
UAGUGACAGACCUACUCUGAGACAUUAACA	0.00519 ± 0.004

Sequence	pre-steady-state target cleavage rate
UUCACAGUCACCUUGUCUGAGAGAUUAACA	0.273 ± 0.044
UAGAGCUGUCACCUUCUCUGAGAGAUUAACA	0.706 ± 0.047
UUCACUGUCACGAUCUCUGAGAGAUUAUGA	0.0352 ± 0.011
UAGACUGUCACGUUGUCUGAGAGAUUAACA	0.485 ± 0.031
AUCACUGUCACGUACUCUGAGAGAUUAACA	0.536 ± 0.045
UACUCUGUCACCUUCUCUGAGAGAUAAACA	0.304 ± 0.03
AUCACUGUCAGCUUGUCUGAGAGAUUAACA	0.713 ± 0.029
AUCACUGUCACCUUCUACUGAGAGAUUAACA	0.264 ± 0.078
UAGUCUGUCACCUUCUCUGAGUCUUUAACA	0.00377 ± 0.0028
UACACUGUCACCUUCUCUGACGAGAUUAACA	0.0169 ± 0.0072
UAGUGACAGUGCUUCUCUGACUCUAAUUGA [g11:g19:cont:t1A]	< 0.0001
UAGUGACAGUGGAUCUCUGAGGAUUAACA	< 0.0001
UACACAGUCACCUUCUCUGAGAGAUUUUGA	0.0801 ± 0.02
UAGUGUGUCACCUUCUCUGAUAGAUUAACA	0.574 ± 0.029
UAGUGAGUCAGCUUCUCUGAGAGAUUUUGA	0.00552 ± 0.0027
AUCACUGUCACCUUCUCUGAGACAUUUACA	0.034 ± 0.011
UAGUGACAGACCUUCUCUGAGAGAUCUAACA	0.0341 ± 0.0089
UACACUGUCACCUUCUCAGAGAGAUUAAGA	0.0543 ± 0.013
UACACUGUCAUCUUCUCUGAGAGAUUAACA	0.694 ± 0.031
UAGUCUGUCAGCUUCUCUGAGAGAUUAUGA	0.0074 ± 0.0033
UUCACUGUCACCUACUCUGAGAGAUUUUGA	0.0565 ± 0.015
AUCACUGUCACGUUCACUGAGAGAUUAACA	0.44 ± 0.025
UAGUGAGUCACCAUCUGUGAGAGAUUAACA	0.347 ± 0.031
UUCACUGUCACCUUCUGAGAGAGAUUUUGA	0.067 ± 0.022

Sequence	pre-steady-state target cleavage rate
UAGUGACUGACCAUCUCUGAGAGAUUAACA	0.0536 ± 0.0083
UAGUCUGUCACCUACUCUGAGAGAUUUACA	0.331 ± 0.051
UAGUGACUCACCUUCUCUGAGAAGAUUAACA	0.00937 ± 0.0034
UAGUGACAGUGGAAGAGAGAGAGAUUAAGCA	< 0.0001
UAGUGACAGUGCUUCUCUGAGAGAUUAAGA	0.00478 ± 0.0025
UAGUGACUCACCUUCUCUGAGAGAUUAUGA	0.106 ± 0.015
UAGUGUGUCACCUUCUGUGAGAGUUUAACA	0.124 ± 0.022
UAGUGACUGACCUUCUCUGAGAGAUUAUCA	0.215 ± 0.04
UAGUGACACACCUUCUCAGAGAGAAUAACA	0.0148 ± 0.0069
UAGUGACUCAGCUUCUCAGAGAGAUUAACA	0.0145 ± 0.004
UAGUGAGUCACCUUCUCUCACAGAUUAACA	0.00753 ± 0.0042
UAGACUGUCACCUUCUGUGAGAGAUUAUCA	0.0739 ± 0.011
UAGUCUGUCACCUUCUCUGAGACAUUUACA	0.0397 ± 0.012
UAGACUGUCACCUUCUCUCAGAGAUUAAGA	0.0494 ± 0.0095
UAGUGUCUCACCUUGUCUGAGAGAUUAACA	0.17 ± 0.031
UAGUGAGUCACCUUCUCUGAGAGAUAUAGA	0.045 ± 0.013
AUCACUGUCACCUUCUCUGAGAGUAUAAGA	0.019 ± 0.0087
UAGUCUGUCACCUUCUCAGAGAGAUUAAGA	0.114 ± 0.034
AUCUGUGUCACCUUCUCUGAGAGAUAUUGA	0.0551 ± 0.014
UACACUCUCACGUUCUCUGAGAGAUUAACA	0.422 ± 0.026
UACACAGUCACCUUCUCAGAGAGAUUAACA	0.376 ± 0.036
UAGUGACACACCUGUCUCUGAGAGAUUAACA	0.192 ± 0.024
UAGUGACAGACGUUCUCUGAGAGAUUAACA	0.0155 ± 0.0026
